# Publication PMC4336329 (PLoS ONE, 2015)
# About 2,200 (0.71%) of roughly 310,000 compounds showed an effect of 50% or more. Effects have a minus sign here. The list shows a part of the results.
# Target: human ether-à-go-go-related gene (hERG) potassium channel (human, UniProt Q12809)
# Test: primary screen, population patch clamp on CHO cells stably expressing hERG
# Sequence of human ether-à-go-go-related gene (hERG) potassium channel (Q12809 whole entry, looked up): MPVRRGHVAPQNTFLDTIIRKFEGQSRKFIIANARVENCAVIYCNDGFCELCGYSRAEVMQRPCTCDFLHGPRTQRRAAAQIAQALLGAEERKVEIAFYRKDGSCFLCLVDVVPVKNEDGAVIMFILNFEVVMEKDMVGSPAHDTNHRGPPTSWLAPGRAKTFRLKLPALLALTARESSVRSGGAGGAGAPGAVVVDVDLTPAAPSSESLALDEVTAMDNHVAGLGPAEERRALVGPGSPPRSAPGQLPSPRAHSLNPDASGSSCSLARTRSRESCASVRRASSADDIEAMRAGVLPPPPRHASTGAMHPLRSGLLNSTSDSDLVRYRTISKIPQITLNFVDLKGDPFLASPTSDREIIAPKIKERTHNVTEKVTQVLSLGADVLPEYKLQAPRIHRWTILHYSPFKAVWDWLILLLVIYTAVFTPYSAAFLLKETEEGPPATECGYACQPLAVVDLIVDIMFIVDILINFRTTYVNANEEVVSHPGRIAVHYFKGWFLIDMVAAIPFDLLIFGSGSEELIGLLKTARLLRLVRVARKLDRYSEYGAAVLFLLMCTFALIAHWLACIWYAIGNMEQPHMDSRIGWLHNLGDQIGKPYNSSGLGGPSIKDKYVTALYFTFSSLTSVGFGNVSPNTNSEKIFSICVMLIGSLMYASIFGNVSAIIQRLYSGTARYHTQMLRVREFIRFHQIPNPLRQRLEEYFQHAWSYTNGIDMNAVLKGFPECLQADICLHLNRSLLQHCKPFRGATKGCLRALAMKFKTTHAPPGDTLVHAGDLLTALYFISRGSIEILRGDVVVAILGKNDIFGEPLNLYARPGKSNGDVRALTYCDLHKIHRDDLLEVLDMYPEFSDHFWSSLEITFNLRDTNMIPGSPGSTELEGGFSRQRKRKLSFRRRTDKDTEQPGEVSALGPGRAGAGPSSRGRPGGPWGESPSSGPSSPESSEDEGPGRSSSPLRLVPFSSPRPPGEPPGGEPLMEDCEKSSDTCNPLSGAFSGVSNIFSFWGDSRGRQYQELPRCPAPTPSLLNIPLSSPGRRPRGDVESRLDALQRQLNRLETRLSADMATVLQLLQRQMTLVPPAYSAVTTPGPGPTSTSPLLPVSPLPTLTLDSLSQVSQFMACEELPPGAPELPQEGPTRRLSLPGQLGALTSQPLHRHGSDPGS
row,SMILES,"hERG current change (%, negative = inhibition) at 1uM [%]"
1,COc1cc2c(cc1OC)CN(S(=O)(=O)c1ccc3c(c1)OCCO3)CC2,0.62
2,COc1ccc(-n2c(CNC(=O)c3ccc(S(=O)(=O)N4CCCC4)cc3)n[nH]c2=S)cc1,5.38
3,CCN1C(=O)/C(=C/N(C(C)=O)c2ccccc2)N(c2ccccc2)C1=S,1.59
4,Cc1ncc([N+](=O)[O-])n1CC(=O)Nc1ccc2c(c1)OCO2,15.7
5,COc1cc(/C=N/Nc2ccc(Cl)c(C(=O)O)c2)ccc1OC(=O)c1cccs1,5.92
6,CCn1c(SCc2ccc(C(=O)Nc3nccs3)cc2)nnc1-c1ccc(NC(C)=O)cc1,-1.35
7,CCOC(=O)c1cc(C(=O)n2cc(Cl)cn2)nn1C,11.3
8,CN(N=Nc1cccc([N+](=O)[O-])c1)c1cccc([N+](=O)[O-])c1,2.49
9,O=C(N/N=C/c1ccc[nH]1)c1ccncc1,9.61
10,Cn1c(N2CCCCC2)cc(=O)n(C)c1=O,20.3
11,COC(=O)C1=C(C)NC2=C(C(=O)c3ccccc32)C1c1ccc(-c2ccc(C(=O)O)cc2)o1 (stereo not drawn),13.8
12,CS(=O)(=O)N1c2ccccc2[C@@]2(Br)C[C@H]3C(=O)N[C@@H](Cc4ccccc4)C(=O)N3[C@@H]12,4.5
13,COc1ccc(NC(=O)Nc2ccc(C(=O)N3CCOCC3)cc2)cc1OC,15.4
14,CN(C(=O)CSc1nnc(-c2c[nH]c3ccccc23)o1)C1CCS(=O)(=O)C1 (stereo not drawn),5.04
15,CCn1c(SCC(=O)O)nc2ccccc21,9.72
16,Cc1cccc(C(=O)NCCCN(C)CCCNC(=O)c2cccc(C)c2)c1,1.03
17,Cn1c(SCC(=O)NCC2CCCO2)nc2c([nH]c3ccccc32)c1=O (stereo not drawn),1.07
18,COc1ccc(S(=O)(=O)N2CCOCC2)cc1NC(=O)COC(=O)C1=COCCO1,14.1
19,COc1cccc(NC(=O)COC(=O)COc2ccccc2[N+](=O)[O-])c1,0.148
20,Cc1ccc(NC(=O)CN(C)CC(=O)Nc2ccccc2-c2ccccc2)cc1,-15.3
21,Cc1ccc(NC2CCCN(C(=O)CSc3ccncc3)C2)cc1C (stereo not drawn),-6.38
22,COc1cc(C(=O)Nc2cc(Cl)ccc2C)c(-n2cnnn2)cc1OC,14.6
23,OCCN(Cc1ccccc1)Cc1cccc(Cl)c1Cl,7.44
24,CCCc1c(C)nc(-c2ccc(C)cc2)nc1OC(=O)N(C)C,10.3
25,COc1ccccc1NS(=O)(=O)c1cc(-c2cnc(C3CC3)o2)ccc1C,10.9
26,CC(C)(C)OC(=O)N1CCC(c2c(C(=O)NCC3CCN(C4CCCC4)C3)cnn2-c2ccc(F)cc2)CC1 (stereo not drawn),1.45
27,O=C(NC1CCc2ccccc21)C1CCN(S(=O)(=O)c2ccc(-n3cnnn3)cc2)CC1 (stereo not drawn),-0.0102

row,SMILES,"hERG current change (%, negative = inhibition) at 1uM [%]"
1,CCOC(=O)Nc1cc(=O)c2ccccc2o1,-1.37
2,O=C(CN1CCN(c2ccc(O)cc2)CC1)NC(=O)NCc1ccco1,-1.36
3,O=C1[C@H]2[C@@H](C(=O)N1c1cc(Cl)cc(Cl)c1)[C@]1(C(=O)Nc3ccccc31)N1CCC[C@@H]21,4.86
4,CC(C)CNC(=O)c1cccc(NC(=O)COc2cccc([N+](=O)[O-])c2)c1,4.93
5,CCOc1cccc(C(=O)Nc2ccccc2C(=O)N2CCOCC2)c1,12.2
6,COc1cc(OC)c(NC(=O)c2ccccc2F)cc1Cl,7.59
7,Cc1cc(C)c(S(=O)(=O)N2CCC(C(=O)NCc3ccc(Cl)cc3Cl)CC2)c(C)c1,3.25
8,O=C(Nc1nc2cc3c(cc2s1)OCCO3)c1ccco1,10.3
9,CCOC(=O)c1sc(=S)n(-c2ccccc2)c1NC(C)=O,16.4
10,COc1ccc(NC(=S)N2CCC(C(=O)c3ccc(F)cc3)CC2)c(OC)c1,5.93
11,O=C(Cn1[nH]c(=O)c2ccccc2c1=O)Nc1cccc(-c2nnc3n2CCCCC3)c1,2.85
12,Cc1ccc(-n2cc3ccc([N+](=O)[O-])cc3n2)cc1,12.2
13,O=S(=O)(NCC1OCCc2ccccc21)c1ccc(S(=O)(=O)N2CCOCC2)cc1 (stereo not drawn),3.94
14,Cc1ccccc1C(C(=O)NC1CCCC1)N(C(=O)CNC(=O)c1ccco1)c1cccnc1 (stereo not drawn),10.5
15,CCN(CC(=O)Nc1c(F)cccc1F)C(=O)C1CCC1,5.67
16,CC(C)(C)n1nc2c(c1NC(=O)CCCc1ccccc1)CS(=O)C2 (stereo not drawn),12.7
17,O=C(CCNC(=O)C1CCN(S(=O)(=O)c2ccccc2)CC1)NCc1ccc(Cl)c(Cl)c1,0.367
18,CC(C)CC(=O)Nc1nnc(S(=O)(=O)N2CCCCCC2)s1,4.45
19,C=CCNC(=S)NNC(=O)c1ccco1,-0.0409
20,COc1cccc(OCc2cc(C(=O)N3CCN(c4ccccc4O)CC3)no2)c1,24.7
21,CCCc1nnc(NC(=O)CS(=O)(=O)c2ccc(C)cc2)s1,13.6
22,O=C(NCCCN1CCCC1=O)c1ccc2c(c1)NC(=O)c1ccccc1S2,14.9
23,ClC1C(Cl)C(Cl)C(Cl)C(Cl)C1Cl (stereo not drawn),11.8
24,CCOc1ccc(CNC(=O)CCCc2cn(C)c3ccccc23)cc1,9.98
25,O=C(Nc1ccc(NC(=O)c2ccc(Cl)c(S(=O)(=O)N3CCOCC3)c2)cc1)c1ccccc1,1.11
26,O=C(COC(=O)CCC(=O)c1ccc(F)cc1)Nc1ccc(F)cc1F,9
27,O=C(COc1ccc(Br)cc1)N1CCN(Cc2c[nH]c3ccccc23)CC1.O=C(O)C(=O)O,0.797
